The record followed here is paper PMC5700166.

This is a selection; strong and weak results do not stand in their true shares. The list includes weakly bound sequences.

What all share (assay): protein-binding microarray (PBM)
Conditions in all cases: PBM: ~300 nM protein, 6 mM HEPES pH 7.8, 80 mM KCl, 0.5 mM EDTA, 0.5 mM EGTA, 6% glycerol, 35 ng/ul poly-dIdC, 1% milk, 1 h, room temperature; Ap Aiptasia and Nv Nematostella (sea anemones) / Co Capsaspora / Aq Amphimedon (sponge) / Dm Drosophila / Hu human; RHD is the Rel homology domain; high values mean tight binding; most listed sequences are background and not binding sites; double strand, one strand shown

The target in one test is T1, GST-Ap-NF-kB RHD (UniProt A0A913YAJ5).
T1 sequence: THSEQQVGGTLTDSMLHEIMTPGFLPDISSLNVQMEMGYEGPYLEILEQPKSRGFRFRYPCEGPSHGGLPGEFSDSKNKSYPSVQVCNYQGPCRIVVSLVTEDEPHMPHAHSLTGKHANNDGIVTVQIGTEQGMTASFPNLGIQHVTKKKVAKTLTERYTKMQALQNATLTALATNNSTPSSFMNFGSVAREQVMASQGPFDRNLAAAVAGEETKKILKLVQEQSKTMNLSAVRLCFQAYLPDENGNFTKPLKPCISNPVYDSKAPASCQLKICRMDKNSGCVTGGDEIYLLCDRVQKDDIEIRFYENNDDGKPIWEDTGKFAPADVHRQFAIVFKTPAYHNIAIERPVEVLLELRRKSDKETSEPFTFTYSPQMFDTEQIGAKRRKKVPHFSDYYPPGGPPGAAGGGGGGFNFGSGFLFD

The target of test [1] is T2, GST-Nv-NF-kB (Cys allele) (UniProt E5G601).
T2 sequence: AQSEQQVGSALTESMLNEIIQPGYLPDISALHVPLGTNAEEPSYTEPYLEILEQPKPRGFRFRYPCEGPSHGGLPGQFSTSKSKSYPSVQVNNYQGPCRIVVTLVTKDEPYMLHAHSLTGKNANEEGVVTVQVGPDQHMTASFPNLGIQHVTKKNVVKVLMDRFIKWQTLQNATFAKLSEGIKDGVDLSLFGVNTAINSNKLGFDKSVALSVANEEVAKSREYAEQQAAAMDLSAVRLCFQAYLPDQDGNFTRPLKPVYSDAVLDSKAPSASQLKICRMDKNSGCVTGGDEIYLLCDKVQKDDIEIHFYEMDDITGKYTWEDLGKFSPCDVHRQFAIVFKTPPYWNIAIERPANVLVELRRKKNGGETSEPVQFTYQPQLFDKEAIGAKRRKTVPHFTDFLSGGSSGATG

A further test concerns the target T3, GST-Co-NF-kB (UniProt F1ARL5).
T3 sequence: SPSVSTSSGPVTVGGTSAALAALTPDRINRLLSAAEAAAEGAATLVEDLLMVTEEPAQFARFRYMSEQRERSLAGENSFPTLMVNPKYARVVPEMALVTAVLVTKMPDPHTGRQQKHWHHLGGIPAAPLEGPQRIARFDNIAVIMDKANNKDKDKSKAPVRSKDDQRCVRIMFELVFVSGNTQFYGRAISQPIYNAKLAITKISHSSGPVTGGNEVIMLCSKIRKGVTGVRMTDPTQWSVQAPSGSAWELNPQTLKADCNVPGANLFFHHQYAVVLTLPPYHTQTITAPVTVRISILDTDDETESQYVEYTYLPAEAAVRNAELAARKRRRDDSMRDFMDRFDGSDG

The next test addresses T4, GST-Aq-NF-kB (UniProt A9Y5G7).
T4 sequence: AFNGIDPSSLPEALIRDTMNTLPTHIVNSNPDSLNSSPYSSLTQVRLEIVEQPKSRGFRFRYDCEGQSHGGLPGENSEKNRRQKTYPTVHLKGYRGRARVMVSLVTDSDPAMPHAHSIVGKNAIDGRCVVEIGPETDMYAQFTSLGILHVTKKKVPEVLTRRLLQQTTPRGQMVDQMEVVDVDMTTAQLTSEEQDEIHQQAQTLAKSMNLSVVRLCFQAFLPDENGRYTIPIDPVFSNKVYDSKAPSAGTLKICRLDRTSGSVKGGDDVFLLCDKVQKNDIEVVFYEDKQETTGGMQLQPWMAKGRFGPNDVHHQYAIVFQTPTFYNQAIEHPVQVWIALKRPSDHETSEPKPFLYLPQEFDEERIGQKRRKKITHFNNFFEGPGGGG

Consider “CCGATTAACATCACGGAAACCACTGATGTTAATCGGGTCTTGATTCGCTTGACGCTGCTG”, for which the binding signal was -0.433 z-score with GST-Ap-NF-kB RHD, -0.134 z-score in test [1], 0.747 z-score with GST-Co-NF-kB and 1.46 z-score in the test with GST-Aq-NF-kB.
As for “CCGATTAACATCAGTGAACCACATGATGTTAATCGGGTCTTGATTCGCTTGACGCTGCTG”, the binding signal with GST-Ap-NF-kB RHD was -0.736 z-score; in test [1], -0.391 z-score; in the test with GST-Co-NF-kB, -0.626 z-score; with GST-Aq-NF-kB, -0.276 z-score.
The matching figures for “CCGATTAACATCAGAAAATTTCCTGATGTTAATCGGGTCTTGATTCGCTTGACGCTGCTG”: -0.12 z-score, 0.949 z-score, 0.283 z-score and 2.09 z-score.
The corresponding values for “CCGATTAACATCAAGAAATCCCCTGATGTTAATCGGGTCTTGATTCGCTTGACGCTGCTG” are 9.62 z-score, 11.5 z-score, 4.27 z-score and 7.7 z-score.
As for “CCGATTAACATCAGCATCCACGGTGATGTTAATCGGGTCTTGATTCGCTTGACGCTGCTG”, the binding signal was found to be 0.158 z-score with GST-Ap-NF-kB RHD, 0.041 z-score in test [1], 0.81 z-score with GST-Co-NF-kB and 0.361 z-score with GST-Aq-NF-kB.
The matching figures for “CCGATTAACATCAGGAATGTACATGATGTTAATCGGGTCTTGATTCGCTTGACGCTGCTG”: 0.0622 z-score, -0.0553 z-score, -0.233 z-score and -0.0698 z-score.
Turning to “CCGATTAACATCAGGAAACTCCATGATGTTAATCGGGTCTTGATTCGCTTGACGCTGCTG”, the binding signal was -0.174 z-score with GST-Ap-NF-kB RHD, -0.389 z-score in test [1], 0.285 z-score in the test with GST-Co-NF-kB and 2.15 z-score with GST-Aq-NF-kB.
The corresponding values for “CCGATTAACATCAGGAAAATTTATGATGTTAATCGGGTCTTGATTCGCTTGACGCTGCTG” are -0.237 z-score, 0.0555 z-score, 0.863 z-score and 1.26 z-score.
The corresponding values for “CCGATTAACATCAGGAATTTATATGATGTTAATCGGGTCTTGATTCGCTTGACGCTGCTG” are -0.118 z-score, -0.589 z-score, 0.349 z-score and 0.331 z-score.
The matching figures for “CCGATTAACATCACGTAAAACCCTGATGTTAATCGGGTCTTGATTCGCTTGACGCTGCTG”: 0.621 z-score, -0.0162 z-score, 0.599 z-score and 2.12 z-score.
As for “CCGATTAACATCAGGGGGGTAACTGATGTTAATCGGGTCTTGATTCGCTTGACGCTGCTG”, the binding signal came out at 5.83 z-score in the test with GST-Ap-NF-kB RHD, 4.16 z-score in test [1], 6.37 z-score with GST-Co-NF-kB and 4.37 z-score in the test with GST-Aq-NF-kB.
Turning to “CCGATTAACATCACGGAATTCACTGATGTTAATCGGGTCTTGATTCGCTTGACGCTGCTG”, the binding signal in the test with GST-Ap-NF-kB RHD amounted to 0.0873 z-score; in test [1] it was 0.36 z-score; with GST-Co-NF-kB, 0.347 z-score; in the test with GST-Aq-NF-kB it was 0.929 z-score.
For “CCGATTAACATCAGAAAATTACATGATGTTAATCGGGTCTTGATTCGCTTGACGCTGCTG”, the binding signal in the test with GST-Ap-NF-kB RHD is -0.78 z-score; in test [1], -0.155 z-score; with GST-Co-NF-kB, 0.253 z-score; with GST-Aq-NF-kB, -0.0656 z-score.
The matching figures for “CCGATTAACATCAGGCGGTAAGGTGATGTTAATCGGGTCTTGATTCGCTTGACGCTGCTG”: 0.427 z-score, 0.0229 z-score, -0.02 z-score and 0.783 z-score.
For “CCGATTAACATCAAATTTCCCCATGATGTTAATCGGGTCTTGATTCGCTTGACGCTGCTG”, the binding signal in the test with GST-Ap-NF-kB RHD amounted to 7.86 z-score; in test [1], 9.05 z-score; in the test with GST-Co-NF-kB it was 9.42 z-score; in the test with GST-Aq-NF-kB, 7.31 z-score.
The matching figures for “CCGATTAACATCAGAATTCCCCCTGATGTTAATCGGGTCTTGATTCGCTTGACGCTGCTG”: 10.1 z-score, 11.8 z-score, 10.8 z-score and 8.47 z-score.
Regarding “CCGATTAACATCAAAAAAAATCCTGATGTTAATCGGGTCTTGATTCGCTTGACGCTGCTG”, the binding signal with GST-Ap-NF-kB RHD stood at 0.518 z-score; in test [1], 0.802 z-score; with GST-Co-NF-kB, 0.554 z-score; with GST-Aq-NF-kB it was 2.68 z-score.
